# In PubChem BioAssay (NCATS):
# Inconclusive means that the source gave no clear call. Such entries were picked first, then a sample of the others. Potencies of inconclusive entries are left out as doubtful fits. The source made the active and inactive calls. Calls follow the shape of the dose curve; as a rule, active = well fitted inhibition curve with a large enough effect; inconclusive = small, poorly fitted or top-dose-only effect; inactive = flat fitted curve, though single readings scatter.
# Experiment: qHTS for Inhibitors of Plasmodium falciparum (7G8) proliferation (AID 504316); also: nearly all actives have a fitted effect of over 65% in size;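 as to activity change, negative = inhibition: 0% = DMSO vehicle and -100% = 0.29 µM artemisinin full kill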
# Conditions: P. falciparum 7G8 in erythrocytes, SYBR Green DNA, 72 h; activity change, negative = inhibition: at 6.7 µM (top of the series)
# Summary of the method: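 Erythrocytes infected with P. falciparum line (0.3% parasitemia, 2.5% hematocrit final) incubated with compounds 72 h at 37 °C, 5% CO2; SYBR Green lysis buffer added, fluorescence read next day. Normalized to 0.29 uM artemisinin and DMSO.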
# Potency is read from the fitted curve at half-maximal effect; tags tell the direction and shape of the fitted curve.
Compound,Potency,"activity change, negative = inhibition"
COCCN1C=C2C(=O)C(C)(OC(=O)CCC(=O)OC)C(=O)C(Br)=C2C=C1c1ccc(OC)cc1 (stereo not given),inactive,–
CCCNC(=O)CC1OC(C2CCCCC2)Cc2ccccc21 (stereo not given),inactive,–
COC(=O)CCC(=O)OC1(C)C(=O)C2=CN(c3ccc(OC)cc3)C(c3ccc(OC)cc3)=CC2=C(Br)C1=O (stereo not given),"inconclusive [inhibitor, partial curve, poor fit]",–
CCN1C(=NCCCOC(C)C)N[C@@H](CCc2ccccc2)[C@H](C(=O)OC)[C@H]1C,inactive,–
CCCCc1nc2c(c3c1C[C@H](C)OC3)CN(S(=O)(=O)c1c(C)noc1C)CC2,inactive,–
C=CCN1C=C2C(=O)C(C)(OC(=O)C3CCCC3)C(=O)C=C2C=C1c1ccsc1 (stereo not given),"inconclusive [inhibitor, partial curve, poor fit] and inactive",–
COC(=O)C1=C(C)N(Cc2ccccc2)C(=NCc2ccccc2)NC1c1ccccc1 (stereo not given),"inconclusive [inhibitor, single point]",–
COC(=O)C1=C(C)N(Cc2ccccc2)C(=O)N[C@H]1c1ccco1,inactive,–
CCCCC1=CC2=C(c3ccco3)C(=O)C(C)(OC(=O)c3ccc(OC)cc3)C(=O)C2=CN1C1CCCC1 (stereo not given),inactive,–
COC(=O)C1=C(C(=O)OC)[C@@H]2N(C)c3ccc(OC)cc3[C@@]23C[C@@H](C(=O)OC)N(C(=O)c2cccs2)C3=N1,inactive,–
c1ccc(CCc2nc(-c3ccccc3)oc2NC2CCCCC2)cc1,–,inconclusive: 18% [activator]
COC(=O)[C@@]1(Cc2ccccc2-c2ccco2)C=C[C@H](C)[C@@H](c2ccccc2)N1C(=O)C(F)(F)F,inactive,–
COC(=O)N1C(/C=C/c2ccc3c(c2)OCO3)=Cc2ccccc2C1CC(C)=O (stereo not given),active: 2.69 µM,–
CCOC(=O)CN1C(=O)N[C@@H](CCc2ccccc2)[C@H](C(C)=O)[C@H]1C,inactive,–
CCCCC1=CC2=CC(=O)C(C)(OC(=O)CC)C(=O)C2=CN1CCOC (stereo not given),inactive,–
